Source: article PMC9911399, “Two distinct binding modes provide the RNA-binding protein RbFox with extraordinary sequence specificity”
Changes are numbered by the printed parent chain; changes in the protein carry UniProt numbers. The list shows a part of the results.

T1: RBFOX1 RRM (Homo sapiens, UniProt Q9NWB1 109-208)
T1 sequence: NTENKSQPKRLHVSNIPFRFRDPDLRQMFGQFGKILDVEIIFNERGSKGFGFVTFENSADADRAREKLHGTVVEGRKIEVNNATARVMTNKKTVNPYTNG

B1: ACACUGC (DNA:RNA)
RNA: GGGAGACCGGAAUUCAGAUUGUCCACACUGCUUAAAUCCCGUCGUAGCCACCA
DNA 1: CAATCTGAATTCCGGTCTCCC
DNA 2: TGGTGGCTACGACGGGATT
B2: GGGGCGA (DNA:RNA)
RNA: B1 RNA with A25G, C26G, A27G, C28G, U29C, C31A
DNA 1: CAATCTGAATTCCGGTCTCCC
DNA 2: TGGTGGCTACGACGGGATT
B3: AUGGGUC (DNA:RNA)
RNA: B1 RNA with C26U, A27G, C28G, U29G, G30U
DNA 1: CAATCTGAATTCCGGTCTCCC
DNA 2: TGGTGGCTACGACGGGATT
B4: CGACCUU (DNA:RNA)
RNA: B1 RNA with A25C, C26G, U29C, G30U, C31U
DNA 1: CAATCTGAATTCCGGTCTCCC
DNA 2: TGGTGGCTACGACGGGATT
B5: AACUAAG (DNA:RNA)
RNA: B1 RNA with C26A, A27C, C28U, U29A, G30A, C31G
DNA 1: CAATCTGAATTCCGGTCTCCC
DNA 2: TGGTGGCTACGACGGGATT
B6: GGGACGG (DNA:RNA)
RNA: B1 RNA with A25G, C26G, A27G, C28A, U29C, C31G
DNA 1: CAATCTGAATTCCGGTCTCCC
DNA 2: TGGTGGCTACGACGGGATT
B7: CAAUCCG (DNA:RNA)
RNA: B1 RNA with A25C, C26A, C28U, U29C, G30C, C31G
DNA 1: CAATCTGAATTCCGGTCTCCC
DNA 2: TGGTGGCTACGACGGGATT
B8: CCUUUAA (DNA:RNA)
RNA: B1 RNA with A25C, A27U, C28U, G30A, C31A
DNA 1: CAATCTGAATTCCGGTCTCCC
DNA 2: TGGTGGCTACGACGGGATT
B9: UUGGCUU (DNA:RNA)
RNA: GGGAGACCGGAAUUCAGAUUGUCCUUGGCUUUUAAAUCCCGUCGUAGCCACCA
DNA 1: CAATCTGAATTCCGGTCTCCC
DNA 2: TGGTGGCTACGACGGGATT
B10: CUGAGCC (DNA:RNA)
RNA: B9 RNA with U25C, G28A, C29G, U30C, U31C
DNA 1: CAATCTGAATTCCGGTCTCCC
DNA 2: TGGTGGCTACGACGGGATT
B11: CCCUGAC (DNA:RNA)
RNA: B1 RNA with A25C, A27C, C28U, U29G, G30A
DNA 1: CAATCTGAATTCCGGTCTCCC
DNA 2: TGGTGGCTACGACGGGATT
B12: AUUUGAU (DNA:RNA)
RNA: B9 RNA with U25A, G27U, G28U, C29G, U30A
DNA 1: CAATCTGAATTCCGGTCTCCC
DNA 2: TGGTGGCTACGACGGGATT
B13: AAAUCGG (DNA:RNA)
RNA: B1 RNA with C26A, C28U, U29C, C31G
DNA 1: CAATCTGAATTCCGGTCTCCC
DNA 2: TGGTGGCTACGACGGGATT
B14: CGGUUGU (DNA:RNA)
RNA: B1 RNA with A25C, C26G, A27G, C28U, C31U
DNA 1: CAATCTGAATTCCGGTCTCCC
DNA 2: TGGTGGCTACGACGGGATT
B15: UAUCGCG (DNA:RNA)
RNA: B1 RNA with A25U, C26A, A27U, U29G, G30C, C31G
DNA 1: CAATCTGAATTCCGGTCTCCC
DNA 2: TGGTGGCTACGACGGGATT
B16: AACAUUA (DNA:RNA)
RNA: B1 RNA with C26A, A27C, C28A, G30U, C31A
DNA 1: CAATCTGAATTCCGGTCTCCC
DNA 2: TGGTGGCTACGACGGGATT
B17: AGCUUCU (DNA:RNA)
RNA: B1 RNA with C26G, A27C, C28U, G30C, C31U
DNA 1: CAATCTGAATTCCGGTCTCCC
DNA 2: TGGTGGCTACGACGGGATT
B18: CGACUCG (DNA:RNA)
RNA: B1 RNA with A25C, C26G, G30C, C31G
DNA 1: CAATCTGAATTCCGGTCTCCC
DNA 2: TGGTGGCTACGACGGGATT
B19: CUCGCCC (DNA:RNA)
RNA: B9 RNA with U25C, G27C, U30C, U31C
DNA 1: CAATCTGAATTCCGGTCTCCC
DNA 2: TGGTGGCTACGACGGGATT
B20: UCUGCUC (DNA:RNA)
RNA: B9 RNA with U26C, G27U, U31C
DNA 1: CAATCTGAATTCCGGTCTCCC
DNA 2: TGGTGGCTACGACGGGATT

target: T1, RBFOX1 RRM; experiment: EMSA; HiTS-Eq, 1 nM pool, 10 min; buffer printed only for the single-RNA assays: 10 mM Tris pH 7.5, 150 mM NaCl, 3.4 mM EDTA, 0.001% NP-40, 30 C; conditions: tags: His6 N-terminal (pET28a); label: 5' 32P
Procedure, shortened: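 Purified RbFox RRM, wild type or mutant, was incubated for 10 min in 50 µL with 1 nM of a 5′-radiolabelled RNA pool carrying 7 randomized nucleotides, whose flanks were annealed to DNA oligonucleotides, over a series of increasing protein concentrations. Unbound RNA was resolved on 8% native PAGE, cut out, reverse-transcribed, barcoded by PCR and sequenced on an Illumina HiSeq 2500. Relative association constants were derived from changes in read counts for each RNA species versus the control reaction and normalised to the cognate motif.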

Point of comparison: B11, binding signal 0.003 KA relative to UGCAUGU. Against it:
- B1 — higher, 0.00606 KA relative to UGCAUGU
- B2 — higher, 0.0263 KA relative to UGCAUGU
- B3 — higher, 0.0197 KA relative to UGCAUGU
- B4 — higher, 0.00679 KA relative to UGCAUGU
- B5 — higher, 0.00773 KA relative to UGCAUGU
- B6 — higher, 0.0291 KA relative to UGCAUGU
- B7 — higher, 0.00301 KA relative to UGCAUGU
- B8 — higher, 0.00389 KA relative to UGCAUGU
- B9 — higher, 0.0217 KA relative to UGCAUGU
- B10 — higher, 0.00915 KA relative to UGCAUGU
- B12 — higher, 0.0129 KA relative to UGCAUGU
- B13 — higher, 0.00348 KA relative to UGCAUGU
- B14 — higher, 0.0279 KA relative to UGCAUGU
- B15 — higher, 0.0182 KA relative to UGCAUGU
- B16 — lower, 0.0011 KA relative to UGCAUGU
- B17 — higher, 0.00935 KA relative to UGCAUGU
- B18 — higher, 0.0111 KA relative to UGCAUGU
- B19 — higher, 0.00659 KA relative to UGCAUGU
- B20 — higher, 0.0126 KA relative to UGCAUGU
